{"source": "PubChem BioAssay AID624296", "about": "(National Center for Advancing Translational Sciences (NCATS), 2012)", "note": "Screen size: about 350,000 compounds; about 9,900 (2.8%) were called active. This list was built around the results that the source calls inconclusive (neither active nor inactive); the mix of calls is not that of the screen. Calls come from the whole dose curve; as a rule, active = well fitted activation curve with a large enough effect; inconclusive = small, poorly fitted or top-dose-only effect; inactive = no such curve, though single readings can be large or run the other way. No potency is given beside an inconclusive call; the fits are too rough."}
{"test": "A quantitative high throughput screen for small molecules that induce DNA re-replication in MCF 10a normal breast cells; note: nearly all actives have a fitted effect of over 50% in size; note: potency is the fitted concentration of half-maximal effect; tags give direction and shape of the fitted curve.", "settings": "MCF 10A DNA re-replication, Hoechst nuclear intensity, 48 h; series mostly up to 46.1 µM"}
{"compound": "CCc1nc(N2CCCCC2C)c2oc3ccccc3c2n1", "note": "(configuration not stated)", "Potency": "inconclusive [activator, partial curve, poor fit]"}
{"compound": "CCCN(CCC)C(=O)C1CC(=O)OC12CCCCC2", "note": "(configuration not stated)", "Potency": "inactive"}
{"compound": "CC1([N+](=O)[O-])COC2(OC1)C(=O)Nc1ccccc12", "note": "(configuration not stated)", "Potency": "inactive"}
{"compound": "O=C(NCCCn1ccnc1)c1ccc(Cl)c(Cl)c1", "Potency": "inconclusive [activator, partial curve, poor fit]"}
{"compound": "Cc1[nH]c2ccc(C(=O)N3CCCC3)cc2c1C", "Potency": "inactive"}
{"compound": "COc1ccccc1C(c1c(N)n(C)c(=O)n(C)c1=O)C(C)[N+](=O)[O-]", "note": "(configuration not stated)", "Potency": "inconclusive [activator, partial curve, poor fit]"}
{"compound": "N#CC1=C(SCC(=O)c2ccccc2)NC2=C(C(=O)CCC2)C1c1ccco1", "note": "(configuration not stated)", "Potency": "active: 8.91 µM"}
{"compound": "C(=N\\Nc1nc(-c2ccccc2)cs1)/c1cccs1", "Potency": "inconclusive [activator, single point]"}
{"compound": "Cc1cc(Nc2ccc(F)c(F)c2)nc(-c2ccccc2O)n1", "Potency": "inactive"}
{"compound": "O=C(NCc1ccc2c(c1)OCO2)c1cccc(Cl)c1", "Potency": "inconclusive [activator, single point]"}
{"compound": "COc1ccc2cc(/C=C3\\SC(=S)NC3=O)c(N3CCOCC3)nc2c1", "Potency": "inconclusive [activator, partial curve, poor fit]"}
{"compound": "C=CCNC(=S)N1CCC(C(=O)c2ccc(C)cc2)CC1", "Potency": "inactive"}
{"compound": "Cc1nnn(C23CC4CC(CC(CC(=O)Nc5ccc(C)c(Cl)c5)(C4)C2)C3)n1", "Potency": "inactive"}
{"compound": "CC(=O)Nc1ccc(S(=O)(=O)N2CCCc3ccccc32)cc1", "Potency": "active: 9.2 µM"}
{"compound": "CCN(CC)S(=O)(=O)c1ccc(N2CCCCC2)c(NC(=O)C2=COCCO2)c1", "Potency": "inconclusive [activator, single point]"}
{"compound": "Cc1ccc(-c2noc(CCC(=O)N3CCN(c4cc(C)ccc4C)CC3)n2)cc1", "Potency": "active: 20.6 µM"}
{"compound": "COc1ccccc1NC(=O)N1CCN(c2cc(-c3ccccc3)nc3ncnn23)CC1", "Potency": "inactive"}
{"compound": "O=C(COC(=O)c1ccccc1Br)Nc1cccnc1Cl", "Potency": "inactive"}
{"compound": "COCCSc1nnc(NC(=O)Cc2cccs2)s1", "Potency": "inconclusive [activator, single point]"}
{"compound": "CCOc1cc(CNCCO)cc(Br)c1OCc1ccccc1Cl", "Potency": "inconclusive [activator, single point]"}
{"compound": "CSCC[C@H](NS(=O)(=O)c1ccc(C(C)=O)cc1)c1nnc2ccccn12", "Potency": "inactive"}
{"compound": "COc1cc(CNCCSc2nnnn2C)cc(Br)c1OCc1ccccc1F", "Potency": "inconclusive [activator, partial curve, poor fit]"}
{"compound": "Cc1nc2c(n1C1CCCCC1)C(=O)c1ccccc1C2=O", "Potency": "inconclusive [activator, partial curve, poor fit]"}
{"compound": "COc1ccc(C2CC(c3ccc(Br)cc3)=NN2C(=O)c2cccnc2)cc1", "note": "(configuration not stated)", "Potency": "inconclusive [activator, partial curve, poor fit]"}
{"compound": "CN(Cc1ccccc1C#N)S(=O)(=O)c1cccs1", "Potency": "inactive"}
{"compound": "Cc1cccc(Cn2c(-c3ccc[nH]c3=O)nc3ccccc32)c1", "Potency": "inactive"}
{"compound": "COc1ccc(-c2nc(N3CCCC3)[nH]c(=O)c2C#N)cc1", "Potency": "inconclusive [activator, full curve, poor fit]"}
{"compound": "CCOC(=O)c1c(NC(=O)CSc2nnc(C)s2)sc2c1CCC(C)C2", "note": "(configuration not stated)", "Potency": "inconclusive [activator, partial curve, poor fit]"}
{"compound": "CC(CCc1ccco1)NC(=O)c1cccc2c1C(=O)N(C1CCCCC1)C2", "note": "(configuration not stated)", "Potency": "inconclusive [activator, partial curve]"}
{"compound": "CCn1cc(CN2CCC(C(=O)Nc3cccc(-c4cccc(Cl)c4)c3)CC2)cn1", "Potency": "inconclusive [activator, single point]"}
{"compound": "CCc1nnc(NS(=O)(=O)c2ccc(NC(=S)NC(=O)c3ccc(OC)cc3)cc2)s1", "Potency": "inactive"}
{"compound": "CCOC(=O)c1cc(C#N)c(Oc2cccc(C(F)(F)F)c2)nc1-c1ccccc1", "Potency": "inconclusive [activator, partial curve]"}
{"compound": "Cc1cc(-c2nnc3n2N=C(c2ccc(-c4ccccc4)cc2)CS3)n[nH]1", "Potency": "inconclusive [activator, single point]"}
{"compound": "CCOC(=O)C[C@H]1c2cc(F)ccc2S(=O)(=O)N1C1CCCCC1", "Potency": "inactive"}
{"compound": "COc1ccc(C(=O)Cn2nnc(-c3ccccc3NC(=O)C3CC3)n2)cc1", "Potency": "inactive"}
{"compound": "Cc1cc(C)cc(-n2c(C)cc(C=C(C#N)C#N)c2C)c1", "Potency": "inconclusive [activator, partial curve]"}
{"compound": "O=C(Nc1ccccc1)OC1CC2CC1C1CCCC21", "note": "(configuration not stated)", "Potency": "inconclusive [activator, single point]"}
{"compound": "CC(C)C(=O)Nc1ccc(C(=O)NNC(=O)C(c2ccccc2)c2ccccc2)cc1", "Potency": "inconclusive [activator, partial curve, poor fit]"}
{"compound": "CC1S/C(=N/N=C/c2cccs2)NC1=O", "note": "(configuration not stated)", "Potency": "inactive"}
{"compound": "Cc1cccc(Nc2nnc(SCC(=O)Nc3ccccc3[N+](=O)[O-])s2)c1", "Potency": "inactive"}
{"compound": "O=C(c1ccc(F)cc1)C1CCN(C(=O)N2CCOCC2)CC1", "Potency": "inconclusive [activator, single point]"}
{"compound": "CCOc1ccccc1NC(=O)NNC(=O)c1ccc2ccccc2c1", "Potency": "inconclusive [activator, single point]"}
{"compound": "Cc1ccc(CNC(=O)CSc2c3c(nc4ccc(Cl)cc24)CCCC3)o1", "Potency": "inconclusive [activator, single point]"}
{"compound": "O=S(=O)(Nc1cc(Cl)cc(Cl)c1)N1CCOCC1", "Potency": "inactive"}
{"compound": "O=C(COCC(=O)NCc1ccccc1)NCc1ccccc1", "Potency": "inactive"}
{"compound": "CC(=O)Nc1ccc(S(=O)(=O)NCC(=O)OC(C)c2ccccc2Cl)cc1", "note": "(configuration not stated)", "Potency": "inconclusive [activator, single point]"}
{"compound": "CCCNC(=O)C(Cc1ccc(I)cc1)NC(=O)c1ccc2ccccc2n1", "note": "(configuration not stated)", "Potency": "inconclusive [activator, full curve, poor fit]"}
{"compound": "CC(C)CC1Nc2ncnc(N3CCN(c4ccccn4)CC3)c2N(Cc2ccccc2)C1=O", "note": "(configuration not stated)", "Potency": "inactive"}
{"compound": "Cc1cc(Cl)ccc1OC(C)C(=O)N1CCCN(C(=O)C(C)Oc2ccc(Cl)cc2C)CC1", "note": "(configuration not stated)", "Potency": "inconclusive [activator, single point]"}
{"compound": "COc1ccccc1C(CNC(=O)c1ccc(-c2ccccc2Cl)o1)N1CCCC1", "note": "(configuration not stated)", "Potency": "inconclusive [activator, single point]"}
{"compound": "Cc1cc(C)c(C)c(OCC(=O)O/N=C(\\N)c2cccnc2)c1", "Potency": "inactive"}
{"compound": "COc1ccc(OC)c(S(=O)(=O)N2CCN(c3ccccn3)CC2)c1", "Potency": "inconclusive [activator, full curve, poor fit]"}
{"compound": "Cc1cccc(NC(=O)NNC(=O)c2cc3ccccc3cc2O)c1C", "Potency": "inconclusive [activator, partial curve, poor fit]"}
{"compound": "O=C(CN1CCC(C(=O)c2ccc(Cl)cc2)CC1)NC1CCCC1", "Potency": "inactive"}
{"compound": "COC(=O)c1ccc(N=NN2CCOCC2)cc1", "Potency": "inconclusive [activator, full curve, poor fit]"}
{"compound": "COc1cccc(N2CN(C3CCCCC3)CNC2=S)c1", "Potency": "inconclusive [activator, single point]"}
{"compound": "Cc1ccc(NC(=S)N=Nc2c(O)[nH]c3ccccc23)cc1", "Potency": "inconclusive [activator, partial curve, poor fit]"}
{"compound": "CC(C)(C)c1ccc(NC(=O)N2CCN(c3ccc([N+](=O)[O-])cn3)CC2)cc1", "Potency": "inconclusive [activator, partial curve, poor fit]"}
{"compound": "COCCOc1cc(N(CC(=O)N(C)C)S(=O)(=O)c2ccccc2)c(Cl)cc1Cl", "Potency": "inconclusive [activator, single point]"}
{"compound": "Cc1nc(-c2ccccn2)sc1C(=O)O", "Potency": "inactive"}
{"compound": "CSc1nc2c(c(C(F)(F)F)n1)CC(C)CC2", "note": "(configuration not stated)", "Potency": "inconclusive [activator, single point]"}
{"compound": "O=C(NCC1CC1(Cl)Cl)Nc1ccc(Cl)c(Cl)c1", "note": "(configuration not stated)", "Potency": "active: 18.4 µM"}
{"compound": "COc1ccccc1CNC(=O)CN1C(=O)NC2(CCCc3sccc32)C1=O", "note": "(configuration not stated)", "Potency": "inactive"}
{"compound": "CCOc1ccc(N(CC(=O)NCC2CCCO2)S(=O)(=O)c2ccc(SC)cc2)cc1", "note": "(configuration not stated)", "Potency": "inactive"}
{"compound": "CC1CCN(c2nc(-c3ccccc3)cc(C(F)(F)F)n2)CC1", "Potency": "inconclusive [activator, single point]"}
{"compound": "O=C(CSc1ncnc2c1oc1ccccc12)Nc1cccc(Cl)c1", "Potency": "inconclusive [activator, partial curve, poor fit]"}
{"compound": "COc1ccc2c(c1)[C@H]1[C@H](CO2)[C@H](c2ccccc2)[C@]2(C)C(=O)Nc3cc(C)ccc3C(=O)N12", "Potency": "inconclusive [activator, single point]"}
{"compound": "O=C(CCCOc1ccc(Cl)cc1Cl)NC(Cc1ccccc1)C(=O)O", "note": "(configuration not stated)", "Potency": "inconclusive [activator, single point]"}
{"compound": "CCOc1ccc(N2CC(C(=O)NC3CCSC3=O)CC2=O)cc1", "note": "(configuration not stated)", "Potency": "inactive"}
{"compound": "CC1CCCCC1NC(=O)CN1C(=O)c2ccccc2S1(=O)=O", "note": "(configuration not stated)", "Potency": "inactive"}
{"compound": "COc1ccc(Cl)cc1C(=O)NC(=S)Nc1cc(-c2nc3ccccc3[nH]2)ccc1C", "Potency": "inconclusive [activator, partial curve]"}
{"compound": "CSc1nc(N(C)CCO)c2sc3nc(-c4ccco4)c4c(c3c2n1)CCC4", "Potency": "inconclusive [activator, single point]"}
